Measured values published in PubChem BioAssay AID624296 (National Center for Advancing Translational Sciences (NCATS), 2012).
The whole screen tested about 350,000 compounds, of which about 9,900 (2.8%) were called active. Inconclusive means that the source gave no clear call. Such entries were picked first, then a sample of the others. The call rests on the fitted dose curve; in most records, active means well fitted activation curve with a large enough effect; inconclusive means small, poorly fitted or top-dose-only effect; inactive means no such curve, though single readings can be large or run the other way. Potencies of inconclusive entries are left out as doubtful fits.

Assay: A quantitative high throughput screen for small molecules that induce DNA re-replication in MCF 10a normal breast cells. Further: nearly all actives have a fitted effect of over 50% in size.
Conditions: MCF 10A DNA re-replication, Hoechst nuclear intensity, 48 h; series mostly up to 46.1 µM
Potency means the concentration at half of the fitted maximal effect; tags describe the fitted curve by direction and shape.

SMILES	Potency
CC(=O)c1ccc(NC(=S)NCc2ccco2)cc1	inconclusive [activator, single point]
COc1ccc(CN2CC(=O)N(c3ccccc3OC)C2=S)cc1OC	inconclusive [activator, full curve, poor fit]
Cc1cccc(C)c1OCC(O)CN(Cc1ccccc1O)C1CCCCC1 (centres undefined)	inconclusive [activator, single point]
O=C(CCl)Nc1cccc(Oc2ccccc2)c1	inconclusive [activator, single point]
CCn1nnc(-c2ccccc2NS(=O)(=O)c2ccc(C(=O)OC)cc2)n1	inconclusive [activator, single point]
Cc1cc(C(=O)CN2C(=O)c3cccc(N)c3C2=O)c(C)n1Cc1cccs1	active: 2.59 µM
O=C(Cn1nnc2ccccc21)OCc1ccccc1	active: 0.651 µM
CCOc1ccccc1NC(=O)CSc1nnc(-c2ccco2)n1Cc1ccco1	inconclusive [activator, partial curve, poor fit]
CC(=O)Nc1sc2c(c1-c1nc3ccccc3s1)CCN(C(C)C)C2	inconclusive [activator, partial curve, poor fit]
COc1ccc(NC(=O)c2oc3ccccc3c2NC(=O)C2CC2)c(OC)c1	inconclusive [activator, single point]
CCOc1ccc(CCNc2nc3ccccc3n3cnnc23)cc1OCC	inconclusive [activator, single point]
COc1ccccc1OCc1nc2ccccc2s1	inconclusive [activator, full curve, poor fit]
O=[N+]([O-])c1cc(/C=N/N/C(=N/c2ccccn2)c2ccccn2)ccc1O	inconclusive [activator, single point]
CN(Cc1ccc(-n2cccn2)cc1)C(=O)c1cnn2c1NC(c1ccco1)CC2C(F)(F)F (centres undefined)	inconclusive [activator, partial curve, poor fit]
CCOc1cc(/C=N/N=C2/NC(=O)C(CC(=O)O)S2)ccc1OCc1ccccc1Cl (centres undefined)	inconclusive [activator, full curve]
Cc1cc(=O)[nH]c(SCC(=O)Nc2ccc(Br)cc2)n1	inconclusive [activator, single point]
Cc1cc(N2CCN(C)CC2)nc2ccc(NC(=S)NCCCN3CCN(C)CC3)cc12	inactive
COC(=O)c1ccc(CN2CCCC(CNC(=O)Cc3ccc(OC)cc3)C2)cc1 (centres undefined)	inactive
Nc1nc(CSc2n[nH]c(-c3ccccc3)n2)nc(Nc2ccccc2)n1	inconclusive [activator, partial curve, poor fit]
O=C(NCc1ccccc1)C1Nc2ccc(OC(F)(F)F)cc2C2C=CCC12 (centres undefined)	inconclusive [activator, partial curve, poor fit]
C=Cc1cc2c(cc1O)CCC1C2CCC2(C)C(O)CCC12 (centres undefined)	active: 10.3 µM
CCc1ccc(-c2nc(SCC(=O)c3c(N)n(C)c(=O)n(C)c3=O)n[nH]2)cc1	inactive

SMILES	Potency
COc1ccc(-c2nc(-c3cccs3)c(-c3cccs3)[nH]2)cc1O	inconclusive [activator, single point]
N#Cc1cccc(NC(=O)COC(=O)c2ccccc2Sc2ccccc2C#N)c1	inconclusive [activator, single point]
CCOC(=O)C1C(=O)C=C(c2ccc(OC)cc2)CC1c1ccco1 (centres undefined)	inconclusive [activator, single point]
Cc1c(NS(=O)(=O)c2ccc3c(c2)OCCO3)cccc1-c1nc2cccnc2s1	inactive
COc1ccc(-c2ccc3c(c2)S(=O)(=O)c2cccc(C(=O)N4CCN(C5CCCCC5)CC4)c2C3=O)cc1OC	active: 20.6 µM
CCN(CC)C(=O)Cn1c(=O)oc2ccccc21	inactive
COc1ccccc1/C=C/C1(C(=O)NC2CCCC2)CC(=O)N1c1ccc(F)cc1 (centres undefined)	inconclusive [activator, single point]
COc1ccc(N2CCN(CC(O)COc3ccc(F)cc3)CC2)cc1 (centres undefined)	inactive
CN(C)c1ccnc2sc(C(=O)c3ccc(Br)cc3)c(N)c12	inconclusive [activator, partial curve, poor fit]
NC(=O)c1nsc(C(=O)N(CCCN2CCOCC2)C(C(=O)NC2CCCCC2)c2ccc(Cl)cc2)c1N (centres undefined)	inconclusive [activator, single point]
O=C(CSc1nnc2ccc(-c3cccnc3)nn12)Nc1ccccc1F	inactive
Cc1ccc(-n2nnnc2SCC(=O)NCC2(N3CCOCC3)CCCCC2)c(C)c1	inconclusive [activator, partial curve, poor fit]
Cc1cc2cc(NC(=O)c3ccco3)ccc2[nH]1	inactive
COc1ccc(/C=C/c2c([N+](=O)[O-])c(=O)n(C)c(=O)n2C)cc1O	inactive
Cc1cc(=O)c2c(o1)CC(C)(C)CC2=O	inactive
O=C(O)c1ccc(/C=N/NC(=O)c2ccc3c(c2)OCCO3)cc1	inconclusive [activator, single point]
CC(NC(=O)/C=C/c1ccco1)c1nc2ccccc2n1Cc1ccccc1F (centres undefined)	inconclusive [activator, partial curve, poor fit]
CCCCCCNC(=O)c1ccc(Br)o1	inconclusive [activator, full curve, poor fit]
COC(=O)c1[nH]c2ccc(C)cc2c1NC(=O)CN1CCN(C(=O)c2ccccc2)CC1	inconclusive [activator, single point]
CCOC(=O)c1sc(Nc2cccc(Cl)c2)nc1C	inactive
Cc1cccc(NC(c2ccc(C)s2)c2ccc3ccc(C)nc3c2O)n1 (centres undefined)	active: 5.8 µM
CCCCn1c(N)c(N(Cc2ccccc2OC)C(=O)COc2ccccc2OC)c(=O)[nH]c1=O	inactive
